# According to the supplement of paper PMC8728848:
# The list shows a part of the results.
# B1: PV12658A-bvu-496-32-496 (Bacteroides vulgatus) (protein)
# chain: DLDGAITTPAAVELALNGIYYSLPGNGFNVIFPTVSGSFKAGTMWRQEIVSAGNAVYYSERMLPTLSFSDATEWDADYAVIKNANFLETACNRMSDGEFSGNRRAEVLGEIAYLRALAYFNILVRYCEFWDMNSEYGVVMRNEAPSVSNALKARSSVADSYQYILDQLEIAIEKAPDWKKLSQASKEAAKALKARVLLYAGKYTEAVAAVNDAIDTNSPLPEANYGDVFDKFSTTKEILFARVFDQKDATNTSTRQQCYGNSPTKKQGYWGPTNEYVELVGDDPRADAIFSKVDSLMDSRSSAVAYNLKSVKKLLNDANDMPVIFSRVSELYLIKAEALYRSGASISEAYAPIRKLRERAGAEIILPANNEELETAIFNEWMLELSFENWHEWFAMIRFAGYTEKPDFTRLLALNKTLREALEKEYEKSEAQGDNYYQRIIDRRIDAIPSSEISSNLECKQNPGY
# Tests used:
# Assay in all cases: glycan array binding signal (z-score within array); higher = stronger binding
# Details in all cases: glycan notation: IUPAC condensed, linker removed
# [1] = molecular target: Gal6S(b1-4)Glc6S
# In short: (§1)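 Glycan array data came from 3228 arrays in the Consortium for Functional Glycomics database, and only arrays with an available protein sequence were kept. Glycan names were put into IUPAC-condensed notation, and columns mapping to the same glycan were averaged. The binding signal is a within-array Z-score, averaged across arrays of one protein sequence run at different concentrations or buffers and across linkers. A negative Z-score can be read as non-binding.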
# [2] = molecular target: Gal6S(b1-4)GlcNAc
# In short: as §1
# [3] = molecular target: Gal6S(b1-4)GlcNAc6S
# In short: as §1
# [4] = molecular target: GalNAc(a1-3)Gal
# In short: as §1
# [5] = molecular target: GalNAc(a1-3)GalNAc
# In short: as §1
# [6] = molecular target: GalNAc(a1-3)GalNAc(b1-3)Gal(a1-4)Gal(b1-4)Glc
# In short: as §1
# [7] = molecular target: GalNAc(a1-3)GalNAc(b1-3)Gal(a1-4)Gal(b1-4)GlcNAc
# In short: as §1
# [8] = molecular target: GalNAc(b1-3)Gal
# In short: as §1
# [9] = molecular target: GalNAc(b1-3)Gal(a1-4)Gal(b1-4)GlcNAc
# In short: as §1
# [10] = molecular target: GalNAc(b1-3)Gal(a1-4)Gal(b1-4)GlcNAc(b1-3)Gal(b1-4)Glc
# In short: as §1
# [11] = molecular target: GalNAc(b1-3)Gal(a1-6)Gal(b1-4)Glc
# In short: as §1
# [12] = molecular target: GalNAc(b1-3)GalNAc
# In short: as §1
# [13] = molecular target: GalNAc(b1-3)GlcNAc
# In short: as §1
# [14] = molecular target: GalNAc(b1-4)Gal(b1-4)Glc
# In short: as §1
# [15] = molecular target: GalNAc(b1-4)GlcNAc
# In short: as §1
# [16] = molecular target: GalNAc(b1-4)GlcNAc(b1-2)Man
# In short: as §1
# [17] = molecular target: GalNAc(b1-4)GlcNAc(b1-2)Man(a1-3)[GalNAc(b1-4)GlcNAc(b1-2)Man(a1-6)]Man(b1-4)GlcNAc(b1-4)GlcNAc
# In short: as §1
# [18] = molecular target: GalNAc(b1-4)GlcNAc(b1-3)GalNAc(b1-4)GlcNAc
# In short: as §1
# [19] = molecular target: GalNAc(b1-4)GlcNAc6S
# In short: as §1
# [20] = molecular target: GalNAc(b1-6)GalNAc
# In short: as §1
# [21] = molecular target: GalNAc3S(b1-4)GlcNAc
# In short: as §1
# [22] = molecular target: GalNAc3S(b1-4)GlcNAc3S
# In short: as §1
# [23] = molecular target: GalNAc3S(b1-4)[Fuc(a1-3)]GlcNAc
# In short: as §1
# [24] = molecular target: GalNAc4S6S(b1-4)GlcNAc
# In short: as §1
# [25] = molecular target: GalNAc6S(b1-4)GlcNAc
# In short: as §1
# [26] = molecular target: Glc(a1-4)Glc
# In short: as §1
# [27] = molecular target: Glc(a1-4)Glc(a1-4)Glc(a1-4)Glc
# In short: as §1
# [28] = molecular target: Glc(a1-6)Glc(a1-6)Glc
# In short: as §1
# [29] = molecular target: Glc(a1-6)Glc(a1-6)Glc(a1-6)Glc
# In short: as §1
# [30] = molecular target: Glc(b1-4)Glc
# In short: as §1
# [31] = molecular target: Glc(b1-6)Glc
# In short: as §1
# [32] = molecular target: GlcA(b1-3)Gal
# In short: as §1
# [33] = molecular target: GlcA(b1-3)GlcNAc
# In short: as §1
# [34] = molecular target: GlcA(b1-6)Gal
# In short: as §1
# [35] = molecular target: GlcA3S(b1-3)Gal(b1-4)GlcNAc(b1-2)Man
# In short: as §1
# [36] = molecular target: GlcA3S(b1-3)Gal(b1-4)GlcNAc(b1-3)Gal(b1-4)Glc
# In short: as §1
# [37] = molecular target: GlcNAc(a1-3)Gal(b1-4)GlcNAc
# In short: as §1
binder,measurement,setting,value
B1,glycan array binding signal (z-score),[1],-0.065
same,glycan array binding signal (z-score),[2],-0.232
same,glycan array binding signal (z-score),[3],0.339
same,glycan array binding signal (z-score),[4],-0.086
same,glycan array binding signal (z-score),[5],-0.179
same,glycan array binding signal (z-score),[6],-0.265
same,glycan array binding signal (z-score),[7],-0.573
same,glycan array binding signal (z-score),[8],-0.229
same,glycan array binding signal (z-score),[9],-0.363
same,glycan array binding signal (z-score),[10],-0.376
same,glycan array binding signal (z-score),[11],-0.362
same,glycan array binding signal (z-score),[12],-0.286
same,glycan array binding signal (z-score),[13],-0.196
same,glycan array binding signal (z-score),[14],-0.027
same,glycan array binding signal (z-score),[15],0.829
same,glycan array binding signal (z-score),[16],-0.439
same,glycan array binding signal (z-score),[17],0.149
same,glycan array binding signal (z-score),[18],-0.422
same,glycan array binding signal (z-score),[19],-0.208
same,glycan array binding signal (z-score),[20],-0.407
same,glycan array binding signal (z-score),[21],-0.329
same,glycan array binding signal (z-score),[22],-0.241
same,glycan array binding signal (z-score),[23],-0.287
same,glycan array binding signal (z-score),[24],-0.376
same,glycan array binding signal (z-score),[25],-0.216
same,glycan array binding signal (z-score),[26],-0.397
same,glycan array binding signal (z-score),[27],0.691
same,glycan array binding signal (z-score),[28],-0.573
same,glycan array binding signal (z-score),[29],-0.006
same,glycan array binding signal (z-score),[30],-0.361
same,glycan array binding signal (z-score),[31],-0.36
same,glycan array binding signal (z-score),[32],-0.408
same,glycan array binding signal (z-score),[33],-0.205
same,glycan array binding signal (z-score),[34],-0.459
same,glycan array binding signal (z-score),[35],-0.329
same,glycan array binding signal (z-score),[36],-0.236
same,glycan array binding signal (z-score),[37],-0.069
